Test [1] has as its target Cytochrome P450 3A7 (Homo sapiens) (UniProt P24462). In words: Cytochrome P450 family 3 subfamily A member 7 (CYP3A7) small molecule antagonists: luciferase biochemical qHTS assay (AID 1963596). Also: nearly all actives have a fitted effect of over 40% in size. Also: potency is read from the fitted curve at half-maximal effect. A digest of the protocol: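 Biochemical CYP3A7 activity measured with P450-Glo system: luciferin formed from proluciferin substrate in NADPH-driven reaction (1 h, room temperature) after 10 min compound preincubation. Signal in relative luminescence units.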
UniProt P24462, sequence (P24462 whole entry, looked up): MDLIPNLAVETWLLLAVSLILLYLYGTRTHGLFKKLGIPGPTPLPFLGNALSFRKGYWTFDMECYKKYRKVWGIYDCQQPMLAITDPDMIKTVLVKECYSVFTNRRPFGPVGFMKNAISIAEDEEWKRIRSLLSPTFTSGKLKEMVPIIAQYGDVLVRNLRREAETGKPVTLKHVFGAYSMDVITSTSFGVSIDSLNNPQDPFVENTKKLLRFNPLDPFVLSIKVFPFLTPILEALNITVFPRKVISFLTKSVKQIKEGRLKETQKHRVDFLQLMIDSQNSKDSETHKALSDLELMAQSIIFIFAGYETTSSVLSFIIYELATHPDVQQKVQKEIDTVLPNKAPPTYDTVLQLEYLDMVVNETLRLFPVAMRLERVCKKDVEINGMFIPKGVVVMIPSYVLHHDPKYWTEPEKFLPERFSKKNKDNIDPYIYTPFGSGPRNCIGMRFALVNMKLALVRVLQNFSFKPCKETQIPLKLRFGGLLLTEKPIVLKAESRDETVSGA
(In general: Quantitative high-throughput screening tests each substance at several concentrations.)

The nature of test [2]: Quantitative highthroughput screen to assess conditional lethalithy of P12 Ichikawa cells grown in Human Plasma-Like Medium with dialyzed fetal bovine serum (HPLM+ds) (AID 1963879). Also: nearly all actives have a fitted effect of over 35% in size. The conditions noted are these: ATP luminescence, 48 h; at 45.8 µM (top of the series). From the text: Assay Provider: Jason Cantor Ph.D.
Department of Biochemistry
University of Wisconsin-Madison, Madison, WI, USA
Chemical screening studies have identified drug sensitivities across hundreds of cancer cell lines but most putative therapeutics fail to translate. Discovery and development of drug candidates in models that more accurately reflect nutrient levels in human blood is a major challenge. Here we performed high-throughput screens in conventional versus Human Plasma-Like Medium (HPLM) to identify compounds that were "missed" when screening using the artificial culture condition. Sets of conditional anticancer compounds spanned phases of clinical development and included non-oncology drugs were assessed. […] We also traced conditional phenotypes for several chemotherapeutics to availability of HPLM-specific metabolites and confirmed others for compounds whose reported targets are encoded by nonessential genes. Our findings establish generalizable strategies for exploiting conditional lethality in HPLM to reveal therapeutic candidates and mechanisms of action in cancer cells. […]
6; Detection; Luminescence, Viewlux PerkinElmer. […]
6. The luminescence signal was measured using a ViewLux (PerkinElmer) multiplate reader with a 2 second exposure time per plate. […]

Test [3] in a line: Quantitative highthroughput screen to assess conditional lethalithy of P12 Ichikawa cells grown in RPMI1640 with untreated serum (RPMI+s) (AID 1963881).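 Also: 100% = DMSO wells and 0% = empty wells without cells; nearly all actives have a fitted effect of over 35% in size.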 The conditions noted are these: ATP luminescence, 48 h; at 45.8 µM (top of the series). A digest of the protocol:
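Each medium arm—HPLM with 10% dialyzed FBS, or RPMI1640 with 5 mM glucose and 10% untreated or dialyzed FBS—was screened against an 11-point, 3-fold compound titration for 48 h at 37 °C, with CellTiter-Glo luminescence as endpoint.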

Structures are written as SMILES. For some of these results: Shown are results outside the selection of hits, which stands elsewhere. Inconclusive results are not listed. The entries are a selection whose mix differs from that of the whole data set. Active and inactive are the calls of the source. Calls follow the shape of the dose curve; as a rule, active = well fitted curve in the direction sought with a large enough effect; inconclusive = small, poorly fitted or top-dose-only effect, or another doubt; inactive = no such curve, though single readings can be large; an effect the other way counts as inactive or inconclusive.

In the case of `C[C@@H]1CN(Cc2ccc(F)cc2)CCN1C(=O)COc1ccc(Cl)cc1NC(N)=O`, the Potency in test [1] is active: 7.08 µM.

One may read the viability as a read-out of living cells in per cent, often relative to untreated cells. `CCNC(=O)CC1N=C(c2ccc(Cl)cc2)c2cc(OC)ccc2-n2c(C)nnc21` (centres undefined): the Potency in test [1] is active: 23.9 µM and inactive. Further, the figures for the viability in test [2] and in test [3] were inactive: 89.8% and inactive: 84.5%, respectively.

The record behind these values is PubChem BioAssay (NCATS).
